Like-named read-outs stand apart in the source and are kept apart here. No end group written: not given here.
System: rat carrageenin-induced paw edema model
Experimental: To physiological saline, λ-carrageenin ("PICNIN-A", Zushi Chemical Co.) was added at the final concentration of 1 w/v%, and it was heated in a boiling water bath to dissolve l-carrageenin completely. The resulting solution was then allowed to stand at room temperature. Before the experiment, the solution was dissolved completely by heating in a boiling water bath and was allowed to stand in a water bath of about 60íC until administration. Immediately after 50 µl of Peptide (I) of the present invention or physiological saline (non-administered group) were administered subcutaneously to the left leg of Splague-Dawley rats (6 weeks old, male), 50 µl of the 1% carrageenin solution were administered to the same site. The paw volume was measured using plethysmometer (product of BM Instrument Co.) every one hour for 5 hours after carrageenin administration. Incidentally, each group consisted of 10 rats and Dunnet ? s two tail method was used for statistical analysis.

AKLTFGKGT [Peptide (I)]
Suppressive effect on edema (%) (0.2 µg/site subcutaneously, 1 hour after carrageenin): 2.3% | Suppressive effect on edema (%) (0.2 µg/site subcutaneously, 2 hours after carrageenin): 3.9% | Suppressive effect on edema (%) (0.2 µg/site subcutaneously, 5 hours after carrageenin): 4.8% | onset of edema (10 µg/site group, five hours after carrageenin): tendency to suppress the edema onset was observed | onset of edema (10 µg/site group, two hours on and after carrageenin): suppressed two hours on and after the administration of carrageenin with a significant difference of 5% | Suppressive effect on edema (%) (10 µg/site subcutaneously, 1 hour after carrageenin): 30.2% | Suppressive effect on edema (%) (10 µg/site subcutaneously, 2 hours after carrageenin): 37.3% | Suppressive effect on edema (%) (10 µg/site subcutaneously, 5 hours after carrageenin): 27.5% | onset of edema (one hour after the administration of carrageenin): tended to be suppressed

Source: patent EP0821003B1, “PEPTIDES AND REMEDY FOR AUTOIMMUNE DISEASES COMPRISING THE SAME” (Aventis Pharma Ltd., priority 1995, dated 2003)
